# “And” between values parts separate entries of the source, which are not always exact repeats. Equal values may be shown once. In all, about 360,000 compounds went through this assay and about 25,000 (6.9%) were called active. The inconclusive results got no clear call from the source; some entries with a clear call stand among them for comparison. The call rests on the fitted dose curve; in most records, active means well fitted inhibition curve with a large enough effect; inconclusive means small, poorly fitted or top-dose-only effect; inactive means flat fitted curve, though single readings scatter. Potencies of inconclusive entries are doubtful fits and often do not repeat.
# Target: Luciferin 4-monooxygenase (Photinus pyralis) (UniProt P08659)
# Assay: qHTS profiling assay for firefly luciferase inhibitor/activator using purifed enzyme and Km concentrations of substrates (counterscreen for miR-21 project); further: nearly all actives have a fitted effect of over 55% in size;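 on activity change, negative = inhibition: plate controls were vehicle for no effect and reference inhibitor for full effect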
# Settings: purified FLuc, luminescence inhibition; series mostly up to 57.5 µM; activity change, negative = inhibition: at the top concentration
# In short: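 Purified P. pyralis luciferase, 10 nM final, with Km-level 10 uM D-luciferin and 10 uM ATP in 50 mM Tris acetate pH 7.5, 10 mM Mg acetate, 0.01% Tween-20, 0.05% BSA; 6-point qHTS titration about 60 µM downward; luminescence read.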
# Potency means the concentration at half of the fitted maximal effect; tags describe the fitted curve by direction and shape.
# Sequence of UniProt P08659 (P08659 whole entry, looked up): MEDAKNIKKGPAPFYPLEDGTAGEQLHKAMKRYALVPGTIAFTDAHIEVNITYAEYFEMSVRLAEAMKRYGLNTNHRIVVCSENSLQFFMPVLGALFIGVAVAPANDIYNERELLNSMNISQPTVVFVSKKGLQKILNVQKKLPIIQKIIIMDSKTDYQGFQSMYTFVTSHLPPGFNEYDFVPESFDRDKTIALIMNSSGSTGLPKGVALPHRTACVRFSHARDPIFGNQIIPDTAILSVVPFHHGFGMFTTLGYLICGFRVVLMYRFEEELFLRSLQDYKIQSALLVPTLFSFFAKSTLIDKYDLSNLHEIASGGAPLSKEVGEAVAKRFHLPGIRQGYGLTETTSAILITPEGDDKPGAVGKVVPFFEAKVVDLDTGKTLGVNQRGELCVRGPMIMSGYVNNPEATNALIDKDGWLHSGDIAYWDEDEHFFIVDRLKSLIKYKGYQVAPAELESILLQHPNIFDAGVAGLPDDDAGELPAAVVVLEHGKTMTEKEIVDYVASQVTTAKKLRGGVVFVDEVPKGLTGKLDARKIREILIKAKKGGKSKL
SMILES,"activity change, negative = inhibition",Potency
COc1nc2cc(C)ccc2cc1-c1noc(-c2cccnc2)n1,inactive: 2.44%,
COc1ccc(NC(=O)c2ccc3c(SCC(=O)O)c4c(nc3c2)CCCC4)cc1Cl,,"inconclusive: 37.9 µM [inhibitor, partial curve, poor fit]"
COCCCNC(=O)CSc1nc2nc(C)c(Cc3ccccc3Cl)c(C)n2n1,inactive: -8.28%,
COc1cccc(CNC(=O)c2cc(-c3cccs3)nc3ccccc23)c1,,"inconclusive: 10.7 µM [inhibitor, partial curve, poor fit]"
CN=c1scc(-c2cccs2)n1/N=C/c1ccccc1O,,active: 0.169 µM
COc1cc(OC)cc(C(=O)NCc2ccc3c(c2)CCN3C(=O)c2ccccc2)c1,,"inconclusive: 37.9 µM [inhibitor, partial curve, poor fit]"
O=C(O)CCCC(=O)Nc1ccc(N=Nc2ccccc2)cc1,,"inconclusive: 26.9 µM [inhibitor, partial curve]"
CCOc1ccc(C(=O)NCC(=O)OCc2ccc(F)cc2Cl)cc1,,"inconclusive: 21.3 µM [inhibitor, partial curve]"
CN1C(=O)c2ccc(NC(=O)CSc3ccccc3)cc2C1=O,,"inconclusive: 37.9 µM [inhibitor, partial curve, poor fit]"
Cc1ccc(-n2ncc3c(N4CCN(C)CC4)ncnc32)cc1,,active: 3.01 µM
Cc1ccc(C(=O)O)cc1NC(=S)NC(=O)c1ccc([N+](=O)[O-])c(C)c1,,"inconclusive: 19 µM [inhibitor, single point]"
Cc1oc2c(c(C)cc3oc(=O)c(CC(=O)N[C@@H](CC(C)C)C(=O)O)c(C)c32)c1C,,"inconclusive: 23.9 µM [inhibitor, single point]"
CC[C@@H](C)[C@H](NC(=O)CNC(=O)Cc1c(C)c2c(cc(C)c3c(C)coc32)oc1=O)C(=O)O,,"inconclusive: 37.9 µM [inhibitor, partial curve, poor fit]"
O=c1cc(CO)oc(C(Nc2ccccn2)c2cccc(F)c2)c1O (stereo not given),,"inconclusive: 37.9 µM [inhibitor, partial curve, poor fit]"
COc1cccc(CNc2nc3ccccc3n2C)c1O,,active: 9.53 µM
CN(C)c1ccc(-c2nc(-c3ccncc3)no2)cc1[N+](=O)[O-],,"inconclusive: 10.7 µM [inhibitor, partial curve]"
COc1ccccc1NC(=S)N(Cc1ccco1)Cc1cc2cc(C)c(C)cc2[nH]c1=O,inactive: 6.66%,
CC1=NN(c2ccccc2)C(=O)/C1=C/c1ccc[nH]1,,active: 16.9 µM
COC(=O)Cn1c2[n+](c3ccccc31)CC(O)CS2 (stereo not given),inactive: 4.03%,
O=C(C1CC(=O)N(c2ccc3c(c2)OCCO3)C1)N1CCN(Cc2ccccc2F)CC1 (stereo not given),inactive: 4.07%,
COc1ccc(/C=C2\SC(=S)N(CC(=O)NC3CCS(=O)(=O)C3)C2=O)cc1 (stereo not given),,"inconclusive: 1.69 µM [inhibitor, full curve]"
O=C(/C=C/c1ccccc1Cl)Nc1ccncc1,,active: 4.26 µM
COc1ccc(S(=O)(=O)N2CCC(CN3C(=O)c4cccc5cccc(c45)C3=O)CC2)cc1,inactive: 0.88%,
CCc1ccc(S(=O)(=O)Nc2cc(-c3cn4ccccc4n3)ccc2C)cc1,,"inconclusive: 12 µM [inhibitor, partial curve, poor fit]"

SMILES,"activity change, negative = inhibition",Potency
CCCCn1nc2cc(C(=O)NCCc3cccs3)ccc2c1OCC,inactive: -14.9%,
COC(=O)c1cnc(SCC(=O)c2ccccc2)n1C,,active: 3.38 µM
COc1ccc(NC(=O)c2c(NCc3cccc(OC)c3)sc3c2CCC3)cc1,inactive: -17.8%,
COc1ccc(/C=N/n2cnn(Cc3ccccc3Cl)c2=S)cc1,,"inconclusive: 21.3 µM [inhibitor, partial curve, poor fit]"
COc1ccc(N2CSC3=C(C#N)C(c4cccs4)CC(=O)N3C2)cc1 (stereo not given),,"inconclusive: 19 µM [inhibitor, partial curve]"
Cc1nc(Nc2cccc(O)c2)c2oc3ccccc3c2n1,,"inconclusive: 16.9 µM [inhibitor, partial curve]"
O=C(O)c1cc(Br)ccc1NN=C1CCCCC1,,"inconclusive: 26.9 µM [inhibitor, single point]"
COc1ccc(CCN(C(=O)C(F)(F)F)C(C(=O)NC2CCCC2)c2cccs2)cc1OC (stereo not given),inactive: 0.368%,
O=C(NNC(=S)Nc1ccccc1)Nc1ccccc1,,"inconclusive: 9.53 µM [inhibitor, partial curve]"
NC(=O)c1cc(N2C(=O)C=CC2=O)ccc1Cl,,"inconclusive: 10.7 µM [inhibitor, partial curve]"
CCCCc1nc2cc(C(=O)N3CCC(OCCOC)CC3)ccc2o1,,"inconclusive: 33.8 µM [inhibitor, single point]"
Cc1cc(N2CCN(C)CC2)ccc1NC(=O)c1cccc(S(=O)(=O)N2CCc3ccccc3C2)c1,,"inconclusive: 19 µM [inhibitor, partial curve, poor fit]"
COc1ccc(-c2csc(C3=C(O)CN(CCCN4CCCC4=O)C3=N)n2)cc1OC,,active: 8.49 µM
COC(=O)c1sc(NC(=S)NC(=O)c2ccccc2C)nc1C,,"inconclusive: 12 µM [inhibitor, partial curve]"
O=C(c1ccco1)N1CCN(Cc2csc(-c3ccccc3Cl)n2)CC1,,"inconclusive: 19 µM [inhibitor, partial curve]"
CN1C(C(=O)Nc2ccccn2)=C(O)c2ccccc2S1(=O)=O,,"inconclusive: 37.9 µM [inhibitor, partial curve, poor fit] and inconclusive: 26.9 µM [inhibitor, partial curve, poor fit]"
NC(=O)CN1CCN(S(=O)(=O)c2ccc(Br)cc2)CC1,inactive: -0.455%,
CN(C)c1ccc(N2C(=NC(=O)COc3ccccc3)SC3CS(=O)(=O)CC32)cc1 (stereo not given),inactive: -2.94%,
N#C/C(=C\c1ccccc1O)C(=O)Nc1ccccn1,,active: 4.78 µM
Nc1nc(CN2CCN(c3ccc(F)cc3)CC2)nc(N2CCCc3ccccc32)n1,inactive: 2.93%,
Cc1ccccc1C(=O)Nc1cc(-c2cc(C(C)(C)C)oc2C)nn1C,,"inconclusive: 21.3 µM [inhibitor, partial curve, poor fit]"
CCCCn1nc(C(=O)N[C@@H](CCSC)c2nc3ccccc3[nH]2)c2ccccc2c1=O,,"inconclusive: 15.1 µM [inhibitor, partial curve, poor fit]"
Oc1[nH]c2ccccc2c1N=Nc1nncc2ccccc12,,active: 7.57 µM
CC(C)(C)c1ccc(OCCNC(=S)NC(=O)c2cccnc2)cc1,,"inconclusive: 33.8 µM [inhibitor, single point]"

SMILES,"activity change, negative = inhibition",Potency
CCN(CC)C(=O)C(=O)Nc1ccc(F)c(Cl)c1,,"inconclusive: 37.9 µM [inhibitor, single point]"
CC(C)(C)c1ccc(OCC(=O)N2CCN(C=O)CC2)cc1,,"inconclusive: 16.9 µM [inhibitor, partial curve]"
COc1ccc(C(=O)Nc2cccc(S(C)(=O)=O)c2)cc1OC,,"inconclusive: 26.9 µM [inhibitor, partial curve, poor fit]"
CCN1CCN(/C=N/c2nc3c(s2)CCCC3)CC1,,active: 1.35 µM
Cc1ccc2nc(CSc3nnc(NC(=O)COc4ccccc4F)s3)cc(=O)n2c1,,"inconclusive: 12 µM [inhibitor, partial curve, poor fit]"
CCN(CC)C(=O)CSc1ncccc1-c1nc2ccccc2[nH]1,,active: 23.9 µM
CCCC(=O)Nc1ccc2nn(-c3ccc(CC)cc3)nc2c1,,"inconclusive: 2.39 µM [inhibitor, full curve]"
O=C1c2ccccc2C(=O)N1Cc1cccnc1,inactive: 0.596%,
O=C(CCCn1c(=O)c2sccc2n(Cc2c(F)cccc2Cl)c1=O)NCc1ccccc1,inactive: 0.848%,
Nc1nc(Br)c2ccccc2c1-c1ccccc1,,"inconclusive: 21.3 µM [inhibitor, single point]"
COc1ccc2c(c1)C(=O)CC(c1ccccc1F)O2 (stereo not given),,"inconclusive: 37.9 µM [inhibitor, partial curve, poor fit]"
Cc1cc(C(=O)CS(=O)(=O)c2ccc(F)cc2)cc(C)c1O,,"inconclusive: 30.1 µM [inhibitor, single point]"
Nc1sc(-c2ccccc2)n[n+]1Cc1cccc2cccnc12,,"inconclusive: 26.9 µM [inhibitor, single point]"
S=c1[nH]nc(Nc2ccccc2Cl)s1,,"inconclusive: 21.3 µM [inhibitor, single point]"
Oc1ccc(C2Nc3cccc4cccc(c34)N2)cc1,,active: 16.9 µM
O=C(CSC1=NS(=O)(=O)c2cc(Cl)ccc2N1)NCc1ccc(F)cc1,,"inconclusive: 37.9 µM [inhibitor, partial curve, poor fit]"
COc1cc2c(cc1OC)-c1cc(Nc3cccc(C)c3)nc(=O)n1CC2,,"inconclusive: 23.9 µM [inhibitor, single point]"
Cc1ccc(C(=O)Nc2ccc(Cc3ccncc3)cc2)cc1[N+](=O)[O-],,"inconclusive: 26.9 µM [inhibitor, partial curve, poor fit]"
Cc1nnc(NC(=O)c2ccc(C)c(S(=O)(=O)N3CCCCCC3)c2)s1,,"inconclusive: 15.1 µM [inhibitor, partial curve, poor fit]"
CC(C)(C)c1ccc(-c2nc(-c3ccncc3)no2)cc1,,active: 0.953 µM
CCOc1cccc(/C=C2\NC(=S)N(c3ccccc3)C2=O)c1O,,active: 5.36 µM
CCC(C)(C)NC(=O)c1cc(S(=O)(=O)N2CCc3ccccc32)cn1C,inactive: 1.44%,
